According to the supplement of paper PMC3334620:
The full ranking holds about 33,000 sequences; the median of “E-score (-0.5 to 0.5)” is about -0.035, and the highest 2% start at about 0.34. This is one part of the list.

target: T1, Mot3 (UniProt P54785); test: PBM E-score (8-mer binding enrichment) (E-score (-0.5 to 0.5)); higher = stronger / more preferred TF binding; most listed sequences are background and not binding sites; conditions: protein concentration: 200 nM; construct: GST-full length
T1 sequence: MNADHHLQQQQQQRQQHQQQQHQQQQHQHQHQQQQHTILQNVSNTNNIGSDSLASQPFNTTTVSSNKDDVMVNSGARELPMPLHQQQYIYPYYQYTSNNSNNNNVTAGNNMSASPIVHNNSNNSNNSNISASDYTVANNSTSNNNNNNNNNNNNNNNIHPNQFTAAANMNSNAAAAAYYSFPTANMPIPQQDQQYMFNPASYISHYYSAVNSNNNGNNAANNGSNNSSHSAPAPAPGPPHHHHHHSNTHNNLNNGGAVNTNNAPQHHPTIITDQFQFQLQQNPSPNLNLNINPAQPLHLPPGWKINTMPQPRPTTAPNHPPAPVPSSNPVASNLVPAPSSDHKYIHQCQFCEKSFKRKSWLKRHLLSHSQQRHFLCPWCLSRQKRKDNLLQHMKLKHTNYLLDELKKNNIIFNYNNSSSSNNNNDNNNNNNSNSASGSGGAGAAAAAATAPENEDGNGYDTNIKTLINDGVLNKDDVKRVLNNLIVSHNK
Summary of the method: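 GST-tagged yeast TFs (full-length or DNA-binding domain) were made by PURExpress in vitro transcription/translation and applied at about 100-200 nM to universal all-10-mer Agilent arrays. The arrays were made double-stranded by primer extension, on fresh or once-stripped slides. Bound protein was detected with fluorescent anti-GST, and scans were normalised with masliner. Each ungapped eight-base word, pooled with its reverse complement, received an E-score (modified Wilcoxon-Mann-Whitney statistic) from the Universal PBM Analysis Suite.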

| Sequence | PBM E-score |
| --- | --- |
| AAAAATTA | 0.172 |
| GAAAGCCA | -0.0213 |
| ATGAAGAC | -0.24 |
| AACTTTAA | 0.0958 |
| TAGCTGGA | -0.118 |
| AAGGATCA | 0.0089 |
| GAATGTCC | -0.108 |
| GTTGTAGA | 0.21 |
| CGTTGCTC | -0.0421 |
| ATCCCGCG | -0.237 |
| CGAATCGA | 0.121 |
| ACTAGGCG | 0.168 |
| TGCAAACA | 0.146 |
| TGCGATAA | 0.0568 |
| CGTACACA | 0.245 |
| ATGTCACC | -0.0308 |
| CGTGTCTC | -0.0265 |
| AAGCAGAT | -0.149 |
| ACGATACC | 0.0374 |
| CAATCAAG | 0.135 |
| CACAGTTA | 0.0944 |
| AAATCGCC | -0.255 |
| ATGTAGAA | 0.359 |
| CGAAAAGA | 0.159 |

| Sequence | PBM E-score |
| --- | --- |
| GGGAGGGA | -0.149 |
| AAAGCATG | 0.203 |
| CCGGGAAA | -0.16 |
| ATTATGCA | 0.0942 |
| GAGTAACA | 0.142 |
| CATAAATC | -0.0763 |
| GATTTGGA | -0.107 |
| CTGTAACC | 0.177 |
| CAGGGATG | 0.034 |
| CGATTTAA | -0.0874 |
| CATTAAAC | 0.211 |
| ATGTCCGA | -0.0627 |
| AGTGGACC | -0.275 |
| AATGGGGC | -0.218 |
| AAAATATT | 0.0713 |
| GCTCTCCC | -0.174 |
| AAGGTTTA | 0.00793 |
| TTGTGAAA | 0.111 |
| ACATGATC | 0.385 |
| CGCCAGCG | -0.0878 |
| CAAGAGGA | 0.038 |
| GACCAACC | -0.0855 |
| AAAGCAGA | 0.102 |
| ATATTCCC | -0.133 |

| Sequence | PBM E-score |
| --- | --- |
| GAATTGCC | 0.246 |
| ACATACCC | 0.235 |
| GCAAAGGA | 0.144 |
| ATCAACTA | 0.206 |
| ATCTTCTA | -0.00375 |
| AAGGGTCA | -0.0956 |
| GCATTCCC | -0.185 |
| TACCTCAA | 0.0123 |
| ACGGAAGC | -0.0218 |
| CACCCTGC | -0.145 |
| CACCGGAC | -0.0953 |
| ACATTGGC | 0.0739 |
| ACCGTCGT | -0.119 |
| CATCTTCC | -0.0698 |
| GTCGGTTA | -0.132 |
| GGGCGAAC | -0.119 |
| CGGGCGAA | 0.00822 |
| ATACGACC | -0.166 |
| CGCGCTCA | -0.115 |
| AAGCGAAC | 0.0812 |
| AAATCATA | 0.0178 |
| CGCCAGGA | -0.117 |
| ACGAGCAG | -0.00968 |
| AGCGACGG | -0.18 |

| Sequence | PBM E-score |
| --- | --- |
| CTGGGCTA | -0.249 |
| CTATTTCA | -0.0187 |
| ATCCAACG | -0.111 |
| AATGCATT | -0.187 |
| ACACACTA | 0.178 |
| AAGGAAAC | 0.423 |
| ACCCAGTG | -0.108 |
| GACGGGAC | -0.288 |
| GAATCCAA | -0.313 |
| CAGGATGG | -0.15 |
| TAGCGATA | -0.0997 |
| AGGCGAAA | 0.00013 |
| CGGAGAGA | -0.143 |
| AACCATGA | 0.109 |
| CAGGTTAC | 0.138 |
| ACGGATAT | 0.00315 |
| CCAGGTCC | -0.258 |
| TATTGACA | 0.279 |
| AGGGTTCG | -0.0343 |
| TCCTTGAA | 0.00893 |
| AACACCGT | -0.00414 |
| GACCAGCA | -0.237 |
